Test results reported in the supplement of paper PMC8728848.
Some of the results follow.

Legend:
Assay in all cases: glycan array binding signal (z-score within array); higher = stronger binding
Settings in all cases: glycan notation: IUPAC condensed, linker removed
Fuc(a1-3)GlcNAc = molecular target: Fuc(a1-3)GlcNAc
Outline: (§1)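 Glycan array binding is given as a within-array Z-score, which can be read as non-binding when negative. The arrays, 3228 of them, came from the Consortium for Functional Glycomics database and were retained only where the protein sequence was available. Z-scores were averaged across arrays of the same protein sequence at different concentrations or buffers and across linkers.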

[1] = molecular target: Fuc(a1-3)[Gal(b1-4)]Glc6S
Outline: as §1

[2] = molecular target: Fuc(a1-3)[Gal(b1-4)]GlcNAc
Outline: as §1

[3] = molecular target: Fuc(a1-3)[Gal(b1-4)]GlcNAc(b1-2)Man
Outline: as §1

[4] = molecular target: Fuc(a1-3)[Gal(b1-4)]GlcNAc(b1-2)Man(a1-3)[Fuc(a1-3)[Gal(b1-4)]GlcNAc(b1-2)Man(a1-6)]Man(b1-4)GlcNAc(b1-4)GlcNAc
Outline: as §1

[5] = molecular target: Fuc(a1-3)[Gal(b1-4)]GlcNAc(b1-2)Man(a1-3)[Fuc(a1-3)[Gal(b1-4)]GlcNAc(b1-2)Man(a1-6)]Man(b1-4)GlcNAc(b1-4)[Fuc(a1-6)]GlcNAc
Outline: as §1

[6] = molecular target: Fuc(a1-3)[Gal(b1-4)]GlcNAc(b1-3)Gal(b1-3)[Fuc(a1-4)]GlcNAc
Outline: as §1

[7] = molecular target: Fuc(a1-3)[Gal(b1-4)]GlcNAc(b1-3)Gal(b1-4)[Fuc(a1-3)]GlcNAc
Outline: as §1

[8] = molecular target: Fuc(a1-3)[Gal(b1-4)]GlcNAc(b1-3)Gal(b1-4)[Fuc(a1-3)]GlcNAc(b1-3)Gal(b1-4)[Fuc(a1-3)]GlcNAc
Outline: as §1

[9] = molecular target: Fuc(a1-3)[Gal(b1-4)]GlcNAc(b1-3)GalNAc
Outline: as §1

[10] = molecular target: Fuc(a1-3)[Gal(b1-4)]GlcNAc(b1-6)GalNAc
Outline: as §1

[11] = molecular target: Fuc(a1-3)[Gal(b1-4)]GlcNAc(b1-6)[Gal(b1-3)GlcNAc(b1-3)]Gal(b1-4)Glc
Outline: as §1

[12] = molecular target: Fuc(a1-3)[Gal(b1-4)]GlcNAc6S
Outline: as §1

[13] = molecular target: Fuc(a1-3)[Gal3S(b1-4)]Glc
Outline: as §1

[14] = molecular target: Fuc(a1-3)[Gal3S(b1-4)]GlcNAc
Outline: as §1

[15] = molecular target: Fuc(a1-3)[Gal3S(b1-4)]GlcNAc6S
Outline: as §1

[16] = molecular target: Fuc(a1-3)[GalNAc(b1-4)]GlcNAc
Outline: as §1

[17] = molecular target: Fuc(a1-3)[GalNAc(b1-4)]GlcNAc6S
Outline: as §1

Fuc(a1-4)GlcNAc = molecular target: Fuc(a1-4)GlcNAc
Outline: as §1

Fuc(b1-3)GlcNAc = molecular target: Fuc(b1-3)GlcNAc
Outline: as §1

Gal(a1-2)Gal = molecular target: Gal(a1-2)Gal
Outline: as §1

Gal(a1-3)Gal = molecular target: Gal(a1-3)Gal
Outline: as §1

Gal(a1-3)Gal(b1-3)GlcNAc = molecular target: Gal(a1-3)Gal(b1-3)GlcNAc
Outline: as §1

[18] = molecular target: Gal(a1-3)Gal(b1-3)GlcNAc(b1-2)Man
Outline: as §1

[19] = molecular target: Gal(a1-3)Gal(b1-3)GlcNAc(b1-2)Man(a1-3)[Gal(a1-3)Gal(b1-3)GlcNAc(b1-2)Man(a1-6)]Man(b1-4)GlcNAc(b1-4)GlcNAc
Outline: as §1

[20] = molecular target: Gal(a1-3)Gal(b1-3)GlcNAc(b1-3)GalNAc
Outline: as §1

[21] = molecular target: Gal(a1-3)Gal(b1-3)GlcNAc(b1-6)GalNAc
Outline: as §1

[22] = molecular target: Gal(a1-3)Gal(b1-3)[Fuc(a1-4)]GlcNAc(b1-2)Man(a1-3)[Gal(a1-3)Gal(b1-3)[Fuc(a1-4)]GlcNAc(b1-2)Man(a1-6)]Man(b1-4)GlcNAc(b1-4)GlcNAc
Outline: as §1

Gal(a1-3)Gal(b1-4)Glc = molecular target: Gal(a1-3)Gal(b1-4)Glc
Outline: as §1

Gal(a1-3)Gal(b1-4)GlcNAc = molecular target: Gal(a1-3)Gal(b1-4)GlcNAc
Outline: as §1

[23] = molecular target: Gal(a1-3)Gal(b1-4)GlcNAc(b1-2)Man
Outline: as §1

[24] = molecular target: Gal(a1-3)Gal(b1-4)GlcNAc(b1-2)Man(a1-3)[Gal(a1-3)Gal(b1-4)GlcNAc(b1-2)Man(a1-6)]Man(b1-4)GlcNAc(b1-4)GlcNAc
Outline: as §1

[25] = molecular target: Gal(a1-3)Gal(b1-4)GlcNAc(b1-3)GalNAc
Outline: as §1

[26] = molecular target: Gal(a1-3)Gal(b1-4)GlcNAc(b1-6)GalNAc
Outline: as §1

[27] = molecular target: Gal(a1-3)Gal(b1-4)[Fuc(a1-3)]GlcNAc
Outline: as §1

[28] = molecular target: Gal(a1-3)Gal(b1-4)[Fuc(a1-3)]GlcNAc(b1-2)Man(a1-3)[Gal(a1-3)Gal(b1-4)[Fuc(a1-3)]GlcNAc(b1-2)Man(a1-6)]Man(b1-4)GlcNAc(b1-4)GlcNAc
Outline: as §1

Gal(a1-3)GalNAc = molecular target: Gal(a1-3)GalNAc
Outline: as §1

[29] = molecular target: Gal(a1-3)[Gal(a1-4)]Gal(b1-4)GlcNAc
Outline: as §1

[30] = molecular target: Gal(a1-4)Gal(b1-3)GlcNAc(b1-2)Man(a1-3)[Gal(a1-4)Gal(b1-3)GlcNAc(b1-2)Man(a1-6)]Man(b1-4)GlcNAc(b1-4)GlcNAc
Outline: as §1

Gal(a1-4)Gal(b1-4)Glc = molecular target: Gal(a1-4)Gal(b1-4)Glc
Outline: as §1

Gal(a1-4)Gal(b1-4)GlcNAc = molecular target: Gal(a1-4)Gal(b1-4)GlcNAc
Outline: as §1

[31] = molecular target: Gal(a1-4)Gal(b1-4)GlcNAc(b1-2)Man(a1-3)[Gal(a1-4)Gal(b1-4)GlcNAc(b1-2)Man(a1-6)]Man(b1-4)GlcNAc(b1-4)GlcNAc
Outline: as §1

[32] = molecular target: Gal(a1-4)Gal(b1-4)GlcNAc(b1-3)Gal(b1-4)Glc
Outline: as §1

Gal(a1-4)GlcNAc = molecular target: Gal(a1-4)GlcNAc
Outline: as §1

Gal(a1-6)Glc = molecular target: Gal(a1-6)Glc
Outline: as §1

B1: RBMC2 (Vibrio cholerae) (protein)
chain: KISVRSGFAIDAIGASASTLVGGTGGNLNAAVNVKDIKAIDLTWGKYYWGGYHLLALDFRMSNGSVISMGSKNYAYSKQTERFTVPAGSRIKGIKAWTAGWLLDGVQFELA
glycan array binding signal (z-score) (Fuc(a1-3)GlcNAc): -0.337 | glycan array binding signal (z-score) [1]: 0.179 | glycan array binding signal (z-score) [2]: -0.371 | glycan array binding signal (z-score) [3]: -0.24 | glycan array binding signal (z-score) [4]: -0.333 | glycan array binding signal (z-score) [5]: -0.248 | glycan array binding signal (z-score) [6]: -0.373 | glycan array binding signal (z-score) [7]: -0.223 | glycan array binding signal (z-score) [8]: -0.353 | glycan array binding signal (z-score) [9]: -0.318 | glycan array binding signal (z-score) [10]: -0.4 | glycan array binding signal (z-score) [11]: -0.282 | glycan array binding signal (z-score) [12]: 0.047 | glycan array binding signal (z-score) [13]: -0.386 | glycan array binding signal (z-score) [14]: -0.407 | glycan array binding signal (z-score) [15]: -0.435 | glycan array binding signal (z-score) [16]: -0.311 | glycan array binding signal (z-score) [17]: -0.377 | glycan array binding signal (z-score) (Fuc(a1-4)GlcNAc): -0.004 | glycan array binding signal (z-score) (Fuc(b1-3)GlcNAc): -0.387 | glycan array binding signal (z-score) (Gal(a1-2)Gal): -0.418 | glycan array binding signal (z-score) (Gal(a1-3)Gal): -0.3 | glycan array binding signal (z-score) (Gal(a1-3)Gal(b1-3)GlcNAc): -0.432 | glycan array binding signal (z-score) [18]: -0.064 | glycan array binding signal (z-score) [19]: 0.427 | glycan array binding signal (z-score) [20]: -0.349 | glycan array binding signal (z-score) [21]: -0.252 | glycan array binding signal (z-score) [22]: 0.108 | glycan array binding signal (z-score) (Gal(a1-3)Gal(b1-4)Glc): -0.287 | glycan array binding signal (z-score) (Gal(a1-3)Gal(b1-4)GlcNAc): -0.401 | glycan array binding signal (z-score) [23]: -0.29 | glycan array binding signal (z-score) [24]: 3.79 | glycan array binding signal (z-score) [25]: -0.194 | glycan array binding signal (z-score) [26]: -0.344 | glycan array binding signal (z-score) [27]: -0.368 | glycan array binding signal (z-score) [28]: 0.834 | glycan array binding signal (z-score) (Gal(a1-3)GalNAc): -0.276 | glycan array binding signal (z-score) [29]: -0.319 | glycan array binding signal (z-score) [30]: 2.49 | glycan array binding signal (z-score) (Gal(a1-4)Gal(b1-4)Glc): -0.077 | glycan array binding signal (z-score) (Gal(a1-4)Gal(b1-4)GlcNAc): -0.372 | glycan array binding signal (z-score) [31]: 4.07 | glycan array binding signal (z-score) [32]: -0.304 | glycan array binding signal (z-score) (Gal(a1-4)GlcNAc): -0.365 | glycan array binding signal (z-score) (Gal(a1-6)Glc): -0.256
